Whole data set: some 110,000 compounds, median “z-score” near -0.1, cut for the highest 2% near 2. Some of the results follow. Activity calls are given as the source filed them.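 Rule for the calls: active = z-score in the third read window above 3 or below -3; inactive = the rest.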
molecular target: Metabotropic glutamate receptor 8 (Rattus norvegicus) (UniProt P70579); experiment: mGluR8 Gi/Go-coupled signaling modulation – cell-based, rat, thallium flux, HTS, primary screen (AID 488969); details: HEK293 rat mGluR8, GIRK (G protein-gated inwardly rectifying potassium channel) thallium flux, FluoZin2; at 10 µM; stronger effect = higher value; submaximal glutamate (EC20) added with thallium
Chain of UniProt P70579 (P70579 whole entry, looked up): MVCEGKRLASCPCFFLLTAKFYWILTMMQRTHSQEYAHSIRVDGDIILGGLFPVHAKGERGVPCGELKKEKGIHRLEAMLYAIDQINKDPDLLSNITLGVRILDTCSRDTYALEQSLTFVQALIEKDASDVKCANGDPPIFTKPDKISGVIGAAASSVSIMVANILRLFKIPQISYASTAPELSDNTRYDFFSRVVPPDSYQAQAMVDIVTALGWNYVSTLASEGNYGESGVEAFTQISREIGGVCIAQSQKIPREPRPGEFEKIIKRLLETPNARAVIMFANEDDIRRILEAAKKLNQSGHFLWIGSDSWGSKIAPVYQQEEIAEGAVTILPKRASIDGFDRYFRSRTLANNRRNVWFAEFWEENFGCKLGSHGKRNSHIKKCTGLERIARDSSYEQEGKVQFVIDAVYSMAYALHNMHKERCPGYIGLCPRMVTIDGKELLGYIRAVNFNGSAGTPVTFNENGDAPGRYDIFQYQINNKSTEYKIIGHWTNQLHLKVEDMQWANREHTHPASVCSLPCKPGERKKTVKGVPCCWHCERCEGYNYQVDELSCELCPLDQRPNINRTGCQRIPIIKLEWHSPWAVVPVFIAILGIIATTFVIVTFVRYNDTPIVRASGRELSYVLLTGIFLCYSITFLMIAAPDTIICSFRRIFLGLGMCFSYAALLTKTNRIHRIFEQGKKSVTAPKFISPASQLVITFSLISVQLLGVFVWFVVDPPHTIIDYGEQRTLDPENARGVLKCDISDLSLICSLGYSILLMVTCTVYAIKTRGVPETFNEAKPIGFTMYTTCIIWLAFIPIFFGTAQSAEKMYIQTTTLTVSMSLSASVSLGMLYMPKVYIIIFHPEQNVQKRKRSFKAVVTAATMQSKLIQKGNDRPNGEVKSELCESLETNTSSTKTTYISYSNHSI

Row | Structure (SMILES) | z-score
1 | CC(=O)C1=C(C)NC(SCC(=O)c2ccc(F)cc2)=C(C#N)C1c1ccco1 (stereo not given) | -0.403
2 | O=C(/C=C\c1ccc2c(c1)OCO2)NC1(C(=O)Nc2ccc3c(c2)OCO3)CCCCC1 | 0.145
3 | CCCC(c1nnnn1CS(=O)(=O)c1ccc(C)cc1)N1CCN(c2ccccc2)CC1 (stereo not given) | -0.889
4 | Clc1ccc(OCc2cnc(Cl)s2)cc1 | -0.388
5 | CC(=O)c1coc2ccc(OCCN3CCCCC3)cc12 | -0.792
6 | Cc1ccc(OCC(=O)N2CCN(C(=O)CCC3CCCC3)CC2)cc1 | -0.203
7 | CC(C)Oc1ccc(C(=O)N2CCCc3ccccc32)cc1 | 0.401
8 | CCNC(=S)N/N=C/c1ccc(OCc2ccc(C(=O)OC)cc2)cc1 | -0.107
9 | O=C(NCCc1ccccc1)C(=O)c1c(-c2ccccc2)cc2ccccn12 | -0.0581
10 | CCOC(=O)C/C(C)=N/NC(=O)COc1ccccc1C | 0.0596
11 | COc1ccc(NC(=O)CCC(=O)N(Cc2ccc(OC)c(OC)c2)c2nccs2)cc1 | -0.00666
12 | CCOC(=O)C[n+]1c(C)ccc2c1CCC2 | -0.223
13 | COc1ccc(C)cc1NC(=O)CSc1nnc(-c2ccc(C)cc2)o1 | -0.202
14 | O=C(COC(=O)Cc1cccs1)Nc1ccccc1 | -0.45
15 | Cc1ccc2cccc(S(=O)(=O)N3CCN(c4cccc(Cl)c4)CC3)c2n1 | 0.709
16 | CN(C)c1ccc(C(CNC(=O)c2ccccc2Br)c2c[nH]c3ccccc23)cc1 (stereo not given) | 0.212
17 | CCN1CCN(c2nc(-c3cccnc3)nc3ccccc23)CC1 | -0.778
18 | O=C(O)CCC(=O)Nc1ccc(C(=O)N2CCCCC2)cc1 | 0.0238
19 | O=C(NCc1ccco1)c1sc2ccccc2c1Cl | -0.649
20 | O=C(Nc1ccccc1Cl)c1cccc(NC(=O)C2C3CC4OC(=O)C2C4C3)c1 (stereo not given) | -0.387
21 | CC1CCCCC1NC(=O)CC1Oc2ccccc2NC1=O (stereo not given) | 0.107
22 | O=C(NCCc1c[nH]c2ccccc12)C(=O)NCC(c1ccco1)N1CCN(c2ccccc2F)CC1 (stereo not given) | 0.534

Row | Structure (SMILES) | z-score
23 | COc1ccc(C(=O)NC(=S)Nc2cccc(Cl)c2N2CCOCC2)cc1[N+](=O)[O-] | -0.0579
24 | CCOc1ccccc1N1Cc2ccccc2C1 | 1.51
25 | CCc1cc[n+](-c2nc3ccccc3nc2[N-]S(=O)(=O)c2ccc(Br)s2)cc1 | 0.232
26 | COc1ccc(CCNC(=O)COC(=O)Cc2ccc(OC)cc2)cc1 | 0.0297
27 | CCc1ccc(-c2nc(CN3CCC(C(=O)NCc4ccco4)CC3)c(C)o2)cc1 | 0.133
28 | CCOC(=O)Cc1nnc(Nc2ccc(C)cc2C)c2ccccc12 | -0.344
29 | CCN(CC)c1ccc(/C=N/NS(=O)(=O)c2ccc(C)c([N+](=O)[O-])c2)cc1 | 0.166
30 | CCOc1ccc(NC(=O)CCn2c(=O)[nH]c3ccsc3c2=O)cc1 | -0.46
31 | CN1CCN(S(=O)(=O)c2ccc(NC(=S)NC(=O)C3CCC3)cc2)CC1 | -0.133
32 | O=C(N/N=C/c1ccc(-c2cccc(C(F)(F)F)c2)o1)c1cccc(F)c1 | 1.36
33 | COC(=O)c1c(C(=O)OC)c2cc(C)ccn2c1Cl | -0.371
34 | CCOCC(=O)Nc1ccc(S(=O)(=O)Nc2ncccn2)cc1 | -0.108
35 | Cc1cc(C)cc(OCCCCCNCCO)c1 | -0.911
36 | CCOC(=O)Cn1c(=O)oc2cc(S(=O)(=O)Nc3cc(Cl)ccc3OC)ccc21 | -0.0116
37 | CSc1nc2sc3c(c2c(=O)[nH]1)CCc1ccccc1-3 | -0.132
38 | CCN(CC)C(=O)c1sc(N)c(C#N)c1C | 1.2
39 | CCc1cc(SC#N)cc(C)c1NC(=O)CCl | 0.0322
40 | O=C(Cn1c(=O)c2sccc2n(Cc2cccc([N+](=O)[O-])c2)c1=O)NCCc1ccccc1 | -0.191
41 | CN1CCN(S(=O)(=O)c2ccc(=O)[nH]c2)CC1 | -0.0437
42 | CC(C)Oc1ccc(/C(O)=C2/C(=O)C(=O)N(CCN(C)C)C2c2cccs2)cc1 (stereo not given) | 0.0182
43 | Cc1cc(S(=O)(=O)Nc2cc(C)c(O)c(C)c2)c(C)s1 | -0.139
44 | COc1cc(CN(C2CCCCC2C)S(=O)(=O)c2ccc(S(=O)(=O)NC3CC3)cc2)cc(OC)c1OC (stereo not given) | 0.119

Row | Structure (SMILES) | z-score
45 | Cc1csc(SCC(=O)N2CCN(S(=O)(=O)c3ccccc3)CC2)n1 | 0.705
46 | CC1(C)NC(=O)N(CC(O)COc2cccc(F)c2)C1=O (stereo not given) | -1.9
47 | COc1ccc(-c2noc(CSc3nc(-c4ccccc4)cc(=O)[nH]3)n2)cc1OC | -0.994
48 | Cc1ccc(OCCOCCN(C)C)c(Cl)c1 | 0.611
49 | Cc1nc2nc(NCc3cccs3)nn2c(C)c1Cl | -0.497
50 | CC(=O)Nc1ccc(S(=O)(=O)NC2(C(F)(F)F)C(=O)Nc3c2c(=O)[nH]c(=O)n3C)cc1 (stereo not given) | 0.00739
51 | N#CC(=C=[N-])C1=C(C#N)C(c2ccccc2F)C([n+]2ccccc2)C(O)(C2CC2)N1 (stereo not given) | 0.175
52 | O=C(Nc1ccc(C(=O)N2CCCC2)cc1)c1ccccc1F | 0.00957
53 | Cc1ccc(SCc2noc(C(=O)NCC3CCCO3)c2C(=O)O)cc1C (stereo not given) | -1.59
54 | Cc1nc(NC(=O)CSc2cc(C)c3ccccc3n2)c(Cl)cc1Cl | 0.101
55 | CCc1cc[n+](-c2nc([O-])sc2C=O)cc1 | -0.00509
56 | Cn1c(=O)c2c(nc(SCCCO)n2Cc2ccccc2Cl)n(C)c1=O | -1.85
57 | CC(C)c1ccc(NC(=O)Nc2cc3sccc3n2C)cc1 | -0.114
58 | CC(C)(C)SCCNC(=O)c1cccc([N+](=O)[O-])c1 | -0.174
59 | Cc1cccc(N/C=C/C(=C(C#N)C#N)N(C)C)c1 | -0.2
60 | COc1ccc(Nc2nc(N)nc(CSc3n[nH]c(-c4ccccc4)n3)n2)cc1 | 0.585
61 | CCOC(=O)c1cccc(NC(=O)CSc2nnc(COc3ccc(Cl)cc3)o2)c1 | -0.15
62 | COc1cccc(NC(=O)Nc2cccn(Cc3ccccc3)c2=O)c1 | 0.12
63 | O=C(NCCN1CCOCC1)C1CC(=O)N(c2ccc(F)c(Cl)c2)C1 (stereo not given) | -0.136
64 | CN(C)CCNC(=O)c1ccccc1 | -0.079
65 | O=C(CSc1nc(-c2ccccc2)cc(=O)[nH]1)NCc1ccc2c(c1)OCO2 | -0.25
66 | CN(C)C(=C(C#N)C#N)N1CCN(c2ccc(Cl)c(Cl)c2)CC1 | -0.151

Row | Structure (SMILES) | z-score
67 | O=C(CS(=O)(=O)c1cn(Cc2cccc(F)c2)c2ccccc12)N1CCOCC1 | 0.16
68 | CC(=O)Nc1ccc(SCC(=O)c2cc(C)n(-c3ccccc3)c2C)cc1 | 0.162
69 | CCN1CCN(C(=S)c2ccc([N+](=O)[O-])cc2)CC1 | -0.204
70 | COc1cccc(OCc2nnc(SCC(=O)NCc3ccco3)n2CCc2ccccc2)c1 | -0.317
71 | CCCOc1ccc(C2C(=O)N(C3CCCCCC3)CC(=O)N2Cc2ccco2)cc1OC (stereo not given) | -0.437
72 | COc1ccc(CCC(=O)Nc2ccc(N3CCOCC3)cc2)cc1 | -0.283
73 | O=C(NCc1ccc2c(c1)OCO2)c1ccc(N2C(=O)C3CCCCC3C2=O)cc1 (stereo not given) | -0.0941
74 | Cc1nn(CC(=O)OCC(=O)Nc2ccccc2[N+](=O)[O-])c(C)c1[N+](=O)[O-] | 0.113
75 | Nc1nc(SCc2ccc(Cl)cc2Cl)n[nH]1 | -0.257
76 | CCOc1cc(C2C(C(=O)N3CCCCC3)=C(C)NC3=C2C(=O)CCC3)cc(Br)c1O (stereo not given) | -0.346
77 | CNc1nc(Oc2ccc(C(=O)OC)cc2)nc(SC)n1 | -0.454
78 | CCCCC(=NCCO)C1=C(O)C(C(=O)OC)C(C)(C)CC1=O (stereo not given) | -0.13
79 | O=C(Cc1nc2ccccc2s1)c1ccc(O)cc1O | -0.0144
80 | COC(=O)N/N=C/c1cn(CCCOc2ccccc2)c2ccccc12 | -0.153
81 | COc1ccc2c(c1)c(=O)oc1cc(OCC(=O)N3CCc4ccccc4C3)ccc12 | -0.0237
82 | CC(=O)N(C)c1nnc(-c2ccccn2)s1 | -0.0164
83 | CCCOC1(NC(=O)c2ccccc2)C(C)=CC(=O)C=C1C | -0.0138
84 | CC1CCN(C(=S)c2ccc(O)cc2)CC1 | 0.161
85 | COCCN(CC(=O)NCC1CCCO1)C(=O)CCC(=O)Nc1cc(C)on1 (stereo not given) | 0.00691
86 | O=C(O)c1[nH]nc2c1COc1ccccc1-2 | -0.00516
87 | COCCNC(=O)CN1CCC(NC(=O)Nc2ccc(C(F)(F)F)cc2)CC1 | -0.00814
88 | COc1ccc(C2N=C(N)N=C(N)N2c2ccccc2OC)cc1OC (stereo not given) | -0.0342

Row | Structure (SMILES) | z-score
89 | CCOC(=O)c1ccccc1NC(=O)CSc1nc(N)cc(N)n1 | -1.18
90 | O=C(NN=C1CCCCC1)c1ccccc1OCc1ccc(F)cc1 | 0.0808
91 | CCOc1cc(S(=O)(=O)N2CCN(CC)CC2)ccc1Cl | -0.29
92 | O=C(NCc1ccco1)c1cnn2c1NC(c1ccc(Br)cc1)CC2C(F)(F)F (stereo not given) | 0.183
93 | CCN(CC)S(=O)(=O)c1ccc(N2CCOCC2)c(NC(=O)C2CCCC2)c1 | 0.0379
94 | CCCOC(=S)NC(=O)c1sc2ccccc2c1Cl | active: 12
95 | O=C(O)CCSc1nc2ccccc2n1CCOc1ccccc1 | 0.105
96 | CN(c1ccccc1C(=O)NCC1CCCO1)S(C)(=O)=O (stereo not given) | 0.319
97 | CC1(C)Cc2nc(N)c(=O)sc2C1 | -0.282
98 | CC(NC(=O)CSc1nc2sc3c(c2c(=O)n1-c1ccccc1)CCCC3)c1ccccc1 (stereo not given) | -0.244
99 | CCOC(=O)N1CCN(CC(O)COCc2ccc(OC)c(OC)c2)CC1 (stereo not given) | 0.0416
100 | CCOC(=O)c1ccc(NC(=O)c2ccc(NS(C)(=O)=O)cc2)cc1 | -0.167
101 | O=C(Nc1ccccc1-c1ccccc1)NC1CC2CCCC(C1)N2CCc1ccccc1 (stereo not given) | 0.521
102 | COc1ccc(NC(=S)NCC2CCN(c3ccc(OC)cc3)C2)cc1 (stereo not given) | 0.136
103 | FC(F)(F)c1cc(-c2ccco2)nc(-n2cnc3ccccc32)n1 | 0.376
104 | Cn1c(C(=O)NCc2ccccc2)cc2oc3ccccc3c21 | 0.0429
105 | CC(C)N(c1ccccc1)c1ccc(NC(=O)COC(=O)CCN2C(=O)c3cccc([N+](=O)[O-])c3C2=O)cc1 | -0.494
106 | Cc1c(C(=O)Nc2ccc3c(c2)OCO3)sc2nc(-c3ccccc3)cn12 | -0.271
107 | COCCNS(=O)(=O)c1cc(OC)c(Cl)cc1Cl | 0.0544
108 | Cc1ccc(S(=O)(=O)N2CCc3ccccc3C2CN2C(=O)c3ccccc3C2=O)cc1 (stereo not given) | -0.265
109 | O=C(NC1CCCC1)C1CCCN(S(=O)(=O)c2cccc3cccnc23)C1 (stereo not given) | 0.397
110 | CCSc1nnc(NC(=O)C(C)(C)C)s1 | 1.36
